The results in this text go back to ChEMBL document CHEMBL4888484, “Replenishing the malaria drug discovery pipeline: Screening and hit evaluation of the MMV Hit Generation Library 1 (HGL1) against asexual blood stage Plasmodium falciparum ,using a nano luciferase reporter read-out” (2022).

The campaign covered roughly 150,000 compounds. About 540 (0.36%) showed an effect of 50% or more. This is one part of the list.

The test system of this test is Plasmodium falciparum. Briefly: Primary screen in NF54 nanoGlo assay, in single point, at 2uM, 72h; a lower Z score goes with more inhibition. Format: functional, Erythrocyte. The settings on record: timepoint 72 hour.
`CCOC(=O)N1CCN(c2cc(C3CCN(C)CC3)ncn2)CC1`: the “% Inhibition” value is -8% and the Z score worked out at 1.04.
For `CC(C)Oc1ccc([C@@H](O)CNc2ccc(C#N)nc2)cc1` the same measures were -8% and 1.47.
For the molecule `Cc1ccc(N2CCC(N3C[C@H](NS(C)(=O)=O)[C@@H](C(C)C)C3)CC2)cc1`, the “% Inhibition” value is -12% and the Z score was 1.58.
Turning to `COC(=O)c1c(NC(=O)c2ccccc2)c2cc(NCc3ccc(OCCO)cc3)cnc2n1C[C@H]1CCCO1`, the “% Inhibition” value is recorded as -20% and the Z score turned out to be 2.29.
For `Cc1nn(C(C)C)cc1CN[C@H]1CCCN(Cc2ccccc2)C1=O` the same measures were 28% and -2.82.
Take `Cc1cccc(N2CCN(C(=O)c3cnn4c(C(F)(F)F)cc(-c5ccccc5)nc34)C[C@@H]2C)c1`: the “% Inhibition” value is recorded as 2% and the Z score is -0.47.
For `COc1ncccc1C(=O)NC[C@H]1CCCN(c2nccs2)C1` the same measures were 16% and -2.
As for `CC(=O)N1CCC(C(=O)N2CCN(c3nonc3C)CC2)CC1`, the “% Inhibition” value is listed as -16% and the Z score is reported as 1.63.
For `COc1ncccc1CN(CCC(N)=O)c1ccc(F)cc1` the same measures were 6% and -0.59.
The matching figures for `CC(C)[C@H](Cn1nccn1)NS(=O)(=O)c1ccccc1`: -3% and 0.51.
As for `CCS(=O)(=O)c1ccccc1C(=O)Nc1ccc(N2C(=O)c3ccccc3C2=O)c(Cl)c1`, the “% Inhibition” value is listed as -5% and the Z score was 0.65.
The matching figures for `Cc1sc(-c2cc(C(F)(F)F)[nH]n2)cc1S(=O)(=O)N1C[C@H]2CC[C@@H](C1)[C@@H]2N`: -3% and 0.34.
The matching figures for `COc1ccc2nc(NC(=O)C(=O)NCCc3ccc4c(c3)OCCO4)sc2c1`: -43% and 5.1.
For `CC[C@@H](C)[C@H](NC(=O)Nc1cccc(C(F)(F)F)c1)C(=O)O` the same measures were -18% and 2.23.
Regarding `Fc1ccc2oc(Cn3nnc(-c4ccsc4)n3)nc2c1`, the “% Inhibition” value is -7% and the Z score is 0.76.
In the case of `CN1CCC2(CC1)CN(C(=O)c1ccc(OCC(F)(F)F)o1)[C@@H]1COC[C@@H]12`, the “% Inhibition” value is on record as -1% and the Z score is reported as 0.16.
For `CNC(=O)CCOC(=O)c1cc(Cl)cc(C(F)(F)F)c1`, the “% Inhibition” value stood at 2% and the Z score is -0.32.
Regarding `C[C@H](NC(=O)c1ccccc1N1CCC(NC(=O)c2ccc(Br)cc2)CC1)c1ccccc1`, the “% Inhibition” value stood at 0% and the Z score came to 0.04.
For the molecule `Cc1noc(C)c1CNc1nnc(CC2CCCCC2)s1`, the “% Inhibition” value was -6% and the Z score was found to be 1.07.
The matching figures for `CCO[C@@H](C)c1noc(CNC(=O)N2CCCCC2)n1`: -11% and 1.44.
For `COCCn1ccc(NC2CC3CCC2C3)n1` (centres undefined) the same measures were 2% and -0.24.
Regarding `O[C@@H](Cn1cnc2cc(F)c(F)cc21)C1(O)CCC1`, the “% Inhibition” value is listed as -9% and the Z score was 1.69.

Broadly, the % Inhibition is the drop in the measured response relative to a control, in per cent.
